Laboratory results: a collection of fitness landscapes (doi:10.1126/science.1257360)
This is one part of the list.

B1: PhoQ; a variant is named by its letters at X, in order, P23837 (parent)
chain: MKKLLRLFFPLSLRVRFLLATAAVVLVLSLAYGMVALIGYSVSFDKTTFRLLRGESNLFYTLAKWENNKLHVELPENIDKQSPTMTLIYDENGQLLWAQRDVPWLMKMIQPDWLKSNGFHEIEADVNDTSLLLSGDHSIQQQLQEVREDDDDAEMTHSVAVNVYPATSRMPKLTIVVVDTIPVELKSSYMVWSWFIYVLSANLLLVIPLLWVAAWWSLRPIEALAKEVRELEEHNRELLNPATTRELTSLVRNLNRLLKSERERYDKYRTTLTDLTHSLKTPLXXLQXXLRSLRSEKMSVSDAEPVMLEQISRISQQIGYYLHRASMRGGTLLSRELHPVAPLLDNLTSALNKVYQRKGVNISLDISPEISFVGEQNDFVEVMGNVLDNACKYCLEFVEISARQTDEHLYIVVEDDGPGIPLSKREVIFDRGQRVDTLRPGQGVGLAVAREITEQYEGKIVAGESMLGGARMEVIFGRQHSAPKDE

Variants of: B1
Assay: enrichment ratio after two sorts for PhoP signalling (ratio (wild type AVST 3.29)); higher = more functional
Conditions: with PhoP (E. coli)

Row | Variant | enrichment ratio
1 | THGR | ≤ 0.25
2 | KYTC | ≤ 0.25
3 | TLMI | 0.678
4 | NGAL | ≤ 0.25
5 | ILEI | ≤ 0.25
6 | PHIG | ≤ 0.25
7 | NADT | ≤ 0.25
8 | QPGF | ≤ 0.25
9 | PNER | ≤ 0.25
10 | QAGR | ≤ 0.25
11 | TFVL | 0.29
12 | RRLV | ≤ 0.25
13 | TKNR | ≤ 0.25
14 | TYTW | ≤ 0.25
15 | KLHD | ≤ 0.25
16 | LPYW | ≤ 0.25
17 | IIYQ | ≤ 0.25
18 | GQCY | ≤ 0.25
19 | NYIT | ≤ 0.25
20 | FLNI | ≤ 0.25
21 | ERMQ | ≤ 0.25
22 | DVVD | ≤ 0.25
23 | WFVR | ≤ 0.25
24 | WLKN | ≤ 0.25
25 | DELL | ≤ 0.25

Row | Variant | enrichment ratio
26 | KGQG | ≤ 0.25
27 | MLKK | ≤ 0.25
28 | SQVK | ≤ 0.25
29 | YMES | ≤ 0.25
30 | QTAQ | 6.08
31 | GSVR | ≤ 0.25
32 | NHLV | ≤ 0.25
33 | VCWY | ≤ 0.25
34 | VRCK | ≤ 0.25
35 | SCMH | 4.11
36 | GTVC | ≤ 0.25
37 | PSKS | ≤ 0.25
38 | MMTA | ≤ 0.25
39 | DMYI | ≤ 0.25
40 | PKFE | ≤ 0.25
41 | CLIC | ≤ 0.25
42 | PSEK | ≤ 0.25
43 | AGAV | 1.8
44 | MQRR | ≤ 0.25
45 | WLHY | ≤ 0.25
46 | LCMS | ≤ 0.25
47 | IICN | ≤ 0.25
48 | VMAT | ≤ 0.25
49 | SLME | 2.88
50 | NINI | ≤ 0.25

Row | Variant | enrichment ratio
51 | QKVA | ≤ 0.25
52 | GKYP | ≤ 0.25
53 | NWEF | ≤ 0.25
54 | DADR | ≤ 0.25
55 | DDNW | ≤ 0.25
56 | NTHG | ≤ 0.25
57 | RHWD | ≤ 0.25
58 | DTLS | ≤ 0.25
59 | RCKR | ≤ 0.25
60 | DMMS | ≤ 0.25
61 | TSHV | 13.7
62 | YITM | 0.387
63 | KVSV | ≤ 0.25
64 | TSSS | 14
65 | WIPF | ≤ 0.25
66 | KMSV | ≤ 0.25
67 | AHHV | ≤ 0.25
68 | ESMC | ≤ 0.25
69 | HPTM | ≤ 0.25
70 | EGIW | ≤ 0.25
71 | MEIP | ≤ 0.25
72 | HQEL | ≤ 0.25
73 | SAIC | 2.13
74 | VYAC | ≤ 0.25
75 | YKAQ | ≤ 0.25

Row | Variant | enrichment ratio
76 | PYPM | ≤ 0.25
77 | QGFW | ≤ 0.25
78 | KFGA | ≤ 0.25
79 | GQPS | ≤ 0.25
80 | IHKY | ≤ 0.25
81 | DGAL | ≤ 0.25
82 | FDTK | ≤ 0.25
83 | IHYR | ≤ 0.25
84 | RMCT | ≤ 0.25
85 | DRWI | ≤ 0.25
86 | DFHQ | ≤ 0.25
87 | APDL | ≤ 0.25
88 | PCLG | ≤ 0.25
89 | IFDC | ≤ 0.25
90 | RRAC | ≤ 0.25
91 | GPWY | ≤ 0.25
92 | YLKR | ≤ 0.25
93 | SLAT | ≤ 0.25
94 | RPMV | ≤ 0.25
95 | LAQE | ≤ 0.25
96 | LSWM | 2.98
97 | KQNV | ≤ 0.25
98 | IWTK | ≤ 0.25
99 | HINS | ≤ 0.25
100 | SGIT | 5.85

Row | Variant | enrichment ratio
101 | IHPR | ≤ 0.25
102 | KSVN | ≤ 0.25
103 | RDFQ | ≤ 0.25
104 | HPPM | ≤ 0.25
105 | HMFP | ≤ 0.25
106 | PQHK | ≤ 0.25
107 | PDQM | ≤ 0.25
108 | TWIT | ≤ 0.25
109 | EERY | ≤ 0.25
110 | GTCQ | 13.4
111 | DHQS | ≤ 0.25
112 | AWDC | ≤ 0.25
113 | YDNT | ≤ 0.25
114 | RPWM | ≤ 0.25
115 | VYMQ | ≤ 0.25
116 | DVTH | ≤ 0.25
117 | HHCA | ≤ 0.25
118 | PWVS | ≤ 0.25
119 | LGKK | ≤ 0.25
120 | INSI | ≤ 0.25
121 | HKAQ | ≤ 0.25
122 | EMAY | ≤ 0.25
123 | FVYD | ≤ 0.25
124 | FCWM | ≤ 0.25
125 | GKCR | ≤ 0.25

Row | Variant | enrichment ratio
126 | TWTN | ≤ 0.25
127 | HENI | ≤ 0.25
128 | GQSA | ≤ 0.25
129 | IMWE | ≤ 0.25
130 | KPRY | ≤ 0.25
131 | DVQW | ≤ 0.25
132 | LYGH | ≤ 0.25
133 | SKGS | ≤ 0.25
134 | HQWQ | ≤ 0.25
135 | VETW | ≤ 0.25
136 | HKLT | ≤ 0.25
137 | KRWY | ≤ 0.25
138 | PQWT | ≤ 0.25
139 | LVWF | ≤ 0.25
140 | DIVG | ≤ 0.25
141 | HPQS | ≤ 0.25
142 | QFMR | ≤ 0.25
143 | PVCE | ≤ 0.25
144 | FTMN | 2.79
145 | HSKI | ≤ 0.25
146 | AHKY | ≤ 0.25
147 | MWHF | ≤ 0.25
148 | FGTH | ≤ 0.25
149 | KDML | ≤ 0.25
150 | QMNG | 38.7

Row | Variant | enrichment ratio
151 | STRY | ≤ 0.25
152 | TTGQ | ≤ 0.25
153 | KIVE | ≤ 0.25
154 | KIYV | ≤ 0.25
155 | HSSI | ≤ 0.25
156 | LHQA | ≤ 0.25
157 | QEGN | ≤ 0.25
158 | SYPR | ≤ 0.25
159 | QMWY | ≤ 0.25
160 | IHEL | ≤ 0.25
161 | RNIL | ≤ 0.25
162 | NMLF | ≤ 0.25
163 | WPIL | ≤ 0.25
164 | FKPY | ≤ 0.25
165 | RVWF | ≤ 0.25
166 | RNGS | ≤ 0.25
167 | TMNN | 34
168 | IEFV | ≤ 0.25
169 | PHKG | ≤ 0.25
170 | PDWD | ≤ 0.25
171 | SWQH | ≤ 0.25
172 | PLAY | 0.252
173 | FVHP | ≤ 0.25
174 | SVTK | 11.9
175 | LNWI | ≤ 0.25

Row | Variant | enrichment ratio
176 | LAIF | ≤ 0.25
177 | IWIH | ≤ 0.25
178 | TNPR | ≤ 0.25
179 | VTIK | ≤ 0.25
180 | ITCY | ≤ 0.25
181 | YDMY | ≤ 0.25
182 | MPMK | ≤ 0.25
183 | PYNY | ≤ 0.25
184 | EKGT | ≤ 0.25
185 | QPVS | ≤ 0.25
186 | NVRC | ≤ 0.25
187 | LWLW | ≤ 0.25
188 | LCFM | ≤ 0.25
189 | KVVG | ≤ 0.25
190 | YRYC | ≤ 0.25
191 | AMDS | ≤ 0.25
192 | HLYA | ≤ 0.25
193 | LMPN | ≤ 0.25
194 | RFDD | ≤ 0.25
195 | PVDN | ≤ 0.25
